We go through 25 test systems from the supplement of paper PMC6657886.

MIC of clinical N. gonorrhoeae isolates (2015-2017) by agar dilution on GC agar with 1% IsoVitaleX (ranges not stated); higher = less susceptible. No active / inactive call per row; the paper counts benzylpenicillin above 1 and ceftriaxone above 0.125 mg/L as resistant (EUCAST). The method is stated for benzylpenicillin and ceftriaxone and assumed for the other drugs. '<=' is inferred from pile-ups at the end values. Isolates are numbered anew. Where only a bound is given, the exact number is not on record here.

Common to all, as to experiment: Agar dilution on enriched GC agar; resistance determinants by microarray.
Compound in one assay: CN(C)[C@@H]1C(O)=C(C(N)=O)C(=O)[C@@]2(O)C(O)=C3C(=O)c4c(O)cccc4[C@@](C)(O)[C@H]3C[C@@H]12 [tetracycline]
Compound in a further assay: CC1(C)S[C@@H]2[C@H](NC(=O)Cc3ccccc3)C(=O)N2[C@H]1C(=O)O [benzylpenicillin]
Compound in the next assay: CN[C@@H]1[C@H](O)[C@H](NC)[C@H]2O[C@@]3(O)C(=O)C[C@@H](C)O[C@H]3O[C@@H]2[C@H]1O [spectinomycin]
Compound in the next assay: CO/N=C(\C(=O)N[C@@H]1C(=O)N2C(C(=O)O)=C(CSc3nc(=O)c(O)nn3C)CS[C@H]12)c1csc(N)n1 [ceftriaxone]
Compound in a further assay: CC[C@H]1OC(=O)[C@H](C)[C@@H](O[C@H]2C[C@@](C)(OC)[C@@H](O)[C@H](C)O2)[C@H](C)[C@@H](O[C@@H]2O[C@H](C)C[C@H](N(C)C)[C@H]2O)[C@](C)(O)C[C@@H](C)CN(C)[C@H](C)[C@@H](O)[C@]1(C)O [azithromycin]

What is called MIC is the smallest concentration in the dilution series that meets the test's criterion for growth inhibition. Take “Neisseria gonorrhoeae isolate 384 (blaTEM plasmid: no, gyrA: wild type, mtrR promoter: wild type, parC: wild type, penA: wild type, ponA: wild type, porB: wild type, rpsJ: wild type, tetM plasmid: no)”: the MIC in the assay with tetracycline is 0.12 µg/mL; with benzylpenicillin, not above 0.015 µg/mL; with spectinomycin, 16 µg/mL; with ceftriaxone, not above 0.002 µg/mL; with azithromycin, 0.12 µg/mL.

For “Neisseria gonorrhoeae isolate 238 (blaTEM plasmid: no, gyrA: Phe91, Asp95, mtrR promoter: wild type, parC: wild type, penA: ins345Asp, ponA: Pro421, porB: Asp120, Ala121, rpsJ: Met57, tetM plasmid: no)”, the MIC was 1 µg/mL in the assay with tetracycline; 1 µg/mL in the assay with benzylpenicillin; 16 µg/mL in the assay with spectinomycin; 0.008 µg/mL in the assay with ceftriaxone; 0.06 µg/mL with azithromycin.

Regarding “Neisseria gonorrhoeae isolate 332 (blaTEM plasmid: no, gyrA: wild type, mtrR promoter: wild type, parC: wild type, penA: wild type, ponA: wild type, porB: wild type, rpsJ: wild type, tetM plasmid: no)”, the MIC was 0.06 µg/mL with tetracycline; not above 0.015 µg/mL in the assay with benzylpenicillin; 16 µg/mL with spectinomycin; not above 0.002 µg/mL with ceftriaxone; 0.12 µg/mL with azithromycin.

Regarding “Neisseria gonorrhoeae isolate 331 (blaTEM plasmid: no, gyrA: wild type, mtrR promoter: wild type, parC: wild type, penA: wild type, ponA: wild type, porB: wild type, rpsJ: wild type, tetM plasmid: no)”, the MIC was 0.12 µg/mL with tetracycline; not above 0.015 µg/mL with benzylpenicillin; 16 µg/mL with spectinomycin; 0.008 µg/mL in the assay with ceftriaxone; 0.03 µg/mL with azithromycin.

Turning to “Neisseria gonorrhoeae isolate 365 (blaTEM plasmid: no, gyrA: wild type, mtrR promoter: wild type, parC: Arg87, Glu91, penA: ins345Asp, ponA: Pro421, porB: wild type, rpsJ: Met57, tetM plasmid: no)”, the MIC in the assay with tetracycline stood at 1 µg/mL; in the assay with benzylpenicillin, 0.25 µg/mL; with spectinomycin, 16 µg/mL; with ceftriaxone it was 0.008 µg/mL; with azithromycin, 0.06 µg/mL.

Regarding “Neisseria gonorrhoeae isolate 48 (blaTEM plasmid: no, gyrA: wild type, mtrR promoter: -35delA, parC: Ile 87, Glu91, penA: ins345Asp, ponA: Pro421, porB: Asp120, Gly121, rpsJ: wild type, tetM plasmid: no)”, the MIC with tetracycline was 1 µg/mL; with benzylpenicillin, 0.5 µg/mL; in the assay with spectinomycin, 16 µg/mL; with ceftriaxone, 0.008 µg/mL; with azithromycin, 0.25 µg/mL.

Take “Neisseria gonorrhoeae isolate 66 (blaTEM plasmid: no, gyrA: Phe91, Asn95, mtrR promoter: wild type, parC: wild type, penA: ins345Asp, ponA: Pro421, porB: wild type, rpsJ: Met57, tetM plasmid: yes)”: the MIC amounted to 32 µg/mL with tetracycline; 0.06 µg/mL with benzylpenicillin; 8 µg/mL in the assay with spectinomycin; 0.004 µg/mL with ceftriaxone; 0.06 µg/mL with azithromycin.

For “Neisseria gonorrhoeae isolate 441 (blaTEM plasmid: no, gyrA: wild type, mtrR promoter: wild type, parC: wild type, penA: wild type, ponA: wild type, porB: wild type, rpsJ: wild type, tetM plasmid: no)”, the MIC with tetracycline is 0.06 µg/mL; with benzylpenicillin it was 0.03 µg/mL; with spectinomycin, 8 µg/mL; with ceftriaxone it was not above 0.002 µg/mL; in the assay with azithromycin, 0.12 µg/mL.

Take “Neisseria gonorrhoeae isolate 440 (blaTEM plasmid: no, gyrA: Thr91, Gly95, mtrR promoter: wild type, parC: wild type, penA: wild type, ponA: Pro421, porB: wild type, rpsJ: Met57, tetM plasmid: no)”: the MIC amounted to 0.25 µg/mL with tetracycline; 0.25 µg/mL with benzylpenicillin; 32 µg/mL with spectinomycin; 0.004 µg/mL with ceftriaxone; 0.12 µg/mL with azithromycin.

On to “Neisseria gonorrhoeae isolate 271 (blaTEM plasmid: no, gyrA: wild type, mtrR promoter: wild type, parC: wild type, penA: ins345Asp, ponA: wild type, porB: wild type, rpsJ: wild type, tetM plasmid: no)”, for which the MIC amounted to 0.25 µg/mL with tetracycline; 0.06 µg/mL in the assay with benzylpenicillin; 32 µg/mL with spectinomycin; 0.004 µg/mL in the assay with ceftriaxone; 0.004 µg/mL with azithromycin.

In the case of “Neisseria gonorrhoeae isolate 374 (blaTEM plasmid: no, gyrA: Ser91, Asn95, mtrR promoter: -35delA, parC: Ser87, Gly 91, penA: ins345Asp, ponA: Pro421, porB: Asn120, Asp121, rpsJ: Met57, tetM plasmid: no)”, the minimal inhibitory concentration (MIC) came out at 1 µg/mL in the assay with tetracycline; 0.25 µg/mL with benzylpenicillin; 16 µg/mL with spectinomycin; 0.015 µg/mL with ceftriaxone; 0.25 µg/mL in the assay with azithromycin.

Regarding “Neisseria gonorrhoeae isolate 214 (blaTEM plasmid: no, gyrA: Phe91, Asp95, mtrR promoter: wild type, parC: Ser87, Gly 91, penA: ins345Asp, ponA: wild type, porB: Asn120, Asp121, rpsJ: wild type, tetM plasmid: no)”, the MIC with tetracycline was determined as 2 µg/mL; in the assay with benzylpenicillin it was 0.5 µg/mL; with spectinomycin, 16 µg/mL; in the assay with ceftriaxone it was 0.015 µg/mL; with azithromycin it was 0.12 µg/mL.

On to “Neisseria gonorrhoeae isolate 512 (blaTEM plasmid: no, gyrA: Phe91, Gly95, mtrR promoter: -35delA, parC: Arg87, Glu91, penA: ins345Asp, ponA: Pro421, porB: wild type, rpsJ: Met57, tetM plasmid: no)”, for which the MIC in the assay with tetracycline was 0.25 µg/mL; with benzylpenicillin it was not above 0.015 µg/mL; with spectinomycin it was 8 µg/mL; with ceftriaxone it was not above 0.002 µg/mL; in the assay with azithromycin, 0.12 µg/mL.

For “Neisseria gonorrhoeae isolate 202 (blaTEM plasmid: no, gyrA: wild type, mtrR promoter: wild type, parC: wild type, penA: wild type, ponA: wild type, porB: wild type, rpsJ: wild type, tetM plasmid: no)”, the MIC with tetracycline was 0.06 µg/mL; with benzylpenicillin, not above 0.015 µg/mL; with spectinomycin, 32 µg/mL; in the assay with ceftriaxone it was not above 0.002 µg/mL; with azithromycin it was 0.008 µg/mL.

“Neisseria gonorrhoeae isolate 234 (blaTEM plasmid: no, gyrA: wild type, mtrR promoter: wild type, parC: wild type, penA: wild type, ponA: wild type, porB: wild type, rpsJ: wild type, tetM plasmid: no)”: the MIC with tetracycline is 0.12 µg/mL; with benzylpenicillin it was not above 0.015 µg/mL; in the assay with spectinomycin, 16 µg/mL; in the assay with ceftriaxone, not above 0.002 µg/mL; with azithromycin, 0.06 µg/mL.

“Neisseria gonorrhoeae isolate 219 (blaTEM plasmid: no, gyrA: wild type, mtrR promoter: wild type, parC: wild type, penA: ins345Asp, ponA: Pro421, porB: wild type, rpsJ: Met57, tetM plasmid: no)”: the MIC with tetracycline was 0.25 µg/mL; in the assay with benzylpenicillin it was 0.12 µg/mL; with spectinomycin, 4 µg/mL; with ceftriaxone it was not above 0.002 µg/mL; with azithromycin, 0.06 µg/mL.

As to “Neisseria gonorrhoeae isolate 101 (blaTEM plasmid: no, gyrA: wild type, mtrR promoter: wild type, parC: Arg87, Glu91, penA: ins345Asp, ponA: Pro421, porB: Asp120, Ala121, rpsJ: Met57, tetM plasmid: no)”, the minimal inhibitory concentration (MIC) amounted to 1 µg/mL with tetracycline; 0.25 µg/mL in the assay with benzylpenicillin; 16 µg/mL with spectinomycin; 0.004 µg/mL with ceftriaxone; 0.12 µg/mL with azithromycin.

Turning to “Neisseria gonorrhoeae isolate 93 (blaTEM plasmid: yes, gyrA: Phe91, Asp95, mtrR promoter: wild type, parC: wild type, penA: ins345Asp, ponA: wild type, porB: wild type, rpsJ: Met57, tetM plasmid: yes)”, the minimal inhibitory concentration (MIC) is 16 µg/mL in the assay with tetracycline; not below 32 µg/mL in the assay with benzylpenicillin; 32 µg/mL with spectinomycin; not above 0.002 µg/mL with ceftriaxone; 0.06 µg/mL in the assay with azithromycin.

As for “Neisseria gonorrhoeae isolate 291 (blaTEM plasmid: yes, gyrA: Phe91, Asp95, mtrR promoter: wild type, parC: Arg87, Lys91, penA: ins345Asp, ponA: wild type, porB: wild type, rpsJ: Met57, tetM plasmid: yes)”, the MIC is 32 µg/mL in the assay with tetracycline; 16 µg/mL in the assay with benzylpenicillin; 16 µg/mL with spectinomycin; not above 0.002 µg/mL with ceftriaxone; 0.06 µg/mL with azithromycin.

As for “Neisseria gonorrhoeae isolate 248 (blaTEM plasmid: no, gyrA: wild type, mtrR promoter: wild type, parC: wild type, penA: ins345Asp, ponA: wild type, porB: wild type, rpsJ: wild type, tetM plasmid: no)”, the MIC in the assay with tetracycline is 0.12 µg/mL; with benzylpenicillin it was 0.06 µg/mL; with spectinomycin, 16 µg/mL; with ceftriaxone it was 0.008 µg/mL; with azithromycin, 0.12 µg/mL.

Regarding “Neisseria gonorrhoeae isolate 446 (blaTEM plasmid: no, gyrA: wild type, mtrR promoter: wild type, parC: wild type, penA: ins345Asp, ponA: Pro421, porB: wild type, rpsJ: wild type, tetM plasmid: no)”, the MIC is 0.12 µg/mL with tetracycline; 0.12 µg/mL with benzylpenicillin; 8 µg/mL with spectinomycin; not above 0.002 µg/mL in the assay with ceftriaxone; 0.015 µg/mL with azithromycin.

“Neisseria gonorrhoeae isolate 353 (blaTEM plasmid: yes, gyrA: Phe91, Asn95, mtrR promoter: wild type, parC: wild type, penA: wild type, ponA: wild type, porB: wild type, rpsJ: Met57, tetM plasmid: yes)”: the MIC with tetracycline was 8 µg/mL; with benzylpenicillin it was not below 32 µg/mL; in the assay with spectinomycin it was 32 µg/mL; with ceftriaxone it was not above 0.002 µg/mL; with azithromycin, 0.03 µg/mL.

Take “Neisseria gonorrhoeae isolate 314 (blaTEM plasmid: no, gyrA: wild type, mtrR promoter: wild type, parC: wild type, penA: ins345Asp, ponA: wild type, porB: wild type, rpsJ: wild type, tetM plasmid: no)”: the MIC was found to be 0.25 µg/mL with tetracycline; 0.03 µg/mL with benzylpenicillin; 32 µg/mL with spectinomycin; 0.004 µg/mL in the assay with ceftriaxone; 0.008 µg/mL with azithromycin.

For the test system “Neisseria gonorrhoeae isolate 47 (blaTEM plasmid: no, gyrA: wild type, mtrR promoter: wild type, parC: wild type, penA: wild type, ponA: wild type, porB: Asp120, Ala121, rpsJ: wild type, tetM plasmid: no)”, the MIC with tetracycline was 0.12 µg/mL; in the assay with benzylpenicillin, not above 0.015 µg/mL; with spectinomycin, 16 µg/mL; in the assay with ceftriaxone it was not above 0.002 µg/mL; with azithromycin it was 0.12 µg/mL.

As to “Neisseria gonorrhoeae isolate 514 (blaTEM plasmid: no, gyrA: Phe91, Gly95, mtrR promoter: -35delA, parC: Arg87, Glu91, penA: ins345Asp, ponA: Pro421, porB: wild type, rpsJ: Met57, tetM plasmid: no)”, the MIC was 0.25 µg/mL with tetracycline; 0.03 µg/mL with benzylpenicillin; 16 µg/mL with spectinomycin; not above 0.002 µg/mL with ceftriaxone; 0.06 µg/mL with azithromycin.
